Laboratory results as given in PubChem BioAssay (NCATS).
“And” between values parts separate entries of the source, which are not always exact repeats. Equal entries are not always repeated. This is one part of the list. These are further read-outs of the screen, such as a control signal, another cell line or another target. No call is given for them. For part of these data: Compounds called inactive in the main read-out are mostly missing here. For part of these data: Potencies come from curve fits of mixed quality, noted in brackets.

What was measured:
[1] = qHTS Assay for Lipid Storage Modulators (AID 1519); settings: Drosophila S3 cells, BODIPY lipid droplet/cell ratio, laser cytometry, cells loaded with oleic acid
Summary of the method: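 Cells seeded at 5,000 per well were treated with compounds over a concentration series and loaded with oleic acid (400 uM, as added). Lipid droplet fluorescence (488 nm excitation, 500-530 nm channel) was read by laser-scanning cytometry and normalized to 20 uM Triacsin C.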

[2] = qHTS for identification of novel therapeutic agents for treatment of microphthalmiaassociated transcription factor (MiT) renal cell carcinoma (RCC) (AID 1963991); settings: CellTiter-Glo, 48 h; for z-score: stronger effect = lower value
Summary of the method: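 Three TFE3-fusion RCC cell lines (UOK109, UOK124, UOK145), 500 cells/well, were exposed to the 1912-compound MIPE 4.0 library for 48 hours at 37 C. Viability was read by CellTiter-Glo luminescence, normalised to DMSO (100%) and empty wells (0%), with 11-concentration curve fits.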

[3] = qHTS Assay for Modulators of Human Peripheral Myelin Protein 22 (PMP22) Expression/Activity (AID 1967); settings: Cell-based PMP22 reporter, dual-color luciferase ratio; measured here: red reporter channel AC50; EF-alpha promoter control reporter in MSC80 mouse Schwann cells
Summary of the method: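 Quantitative HTS in a mouse Schwann cell line expressing dual click beetle luciferases: Pmp22 promoter (green) and control EF-alpha promoter (red). After 24h treatment, corrected green/red signal ratio gave %Activity relative to untreated cells.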

[4] = qHTS Assay for Inhibitors of PDE-IV (AID 607); settings: HEK293 ACTOne CNG channel cells, membrane potential fluorescence; measured here: parental cell counter-screen;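 also: parental cells stimulated with forskolin 10 µM plus RO 20-1724 100 µM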
Summary of the method: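 ACTOne HEK293 cells carry a modified cAMP-gated CNG channel and express endogenous PDE4; plated 1000 cells/well, compounds up to 22.9 uM final. Membrane-potential dye fluorescence (ex 535/em 590) was read; parental cells received 10 uM forskolin + 100 uM RO 20-1724.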

[5] = qHTS assay for small molecule antagonists of androgen receptor signaling (AID 588516); settings: AR-UAS-bla HEK293, beta-lactamase ratio, antagonist mode, 16 h; measured here: W460 blue channel fit
Summary of the method: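 Cells were plated and incubated 5 h, compounds added in titration, then R1881 (10 nM final) as agonist. After 16 h at 37 C, CCF4 substrate was loaded for 2 h at room temperature and fluorescence measured.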

[6] = qHTS assay for small molecule antagonists of peroxisome proliferator-activated receptor delta signaling (AID 588535); settings: HEK293T PPARd-UAS-bla, beta-lactamase FRET ratio, 18 h; 460 nm channel;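 also: cells co-treated with a PPAR-delta agonist as stimulator during compound exposure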
Summary of the method: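 Cell-based beta-lactamase assay in antagonist mode: 4000 HEK293T PPAR-delta-UAS-bla cells per well, 5 hr preincubation then 18 hr compound incubation at 37 C. IC50 obtained by Hill equation fitting.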

[7] = Nrf2 qHTS screen for inhibitors: Validation (AID 493153); settings: A549 ARE-Fluc reporter, 18-24 h; AC50: CellTiter-Fluor fluorescence read, measured here: cytotoxicity CellTiter-Fluor AC50; viability change: measured here: cytotoxicity max response
Summary of the method: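 Dose-response validation uses reporter A549 cells with firefly luciferase under an antioxidant response element. Compounds stay on cells 18-24 h at 37°C, and luminescence indicates Nrf2-driven transcription.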

[8] = S16 Schwann cell PMP22 intronic element beta-lactamase assay (AID 624044); settings: S16 rat Schwann cells, PMP22 element beta-lactamase FRET, 24 h; also: nearly all actives have a fitted effect of over 15% in size
Summary of the method: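 Rat S16 Schwann cells with beta-Lac driven by a PMP22 intronic element, compound-treated 24 h at 37 °C. LiveBLAzer FRET B/G read: 460 nm normalized to potassium clavulanate vs DMSO; 535 nm FRET as viability; concentration-effect curves classified.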

[9] = qHTS assay for small molecule antagonists of peroxisome proliferator-activated receptor gamma signaling (AID 588537); settings: HEK293 PPARg-UAS-bla, beta-lactamase ratio, antagonist mode; measured here: W460 blue channel
Summary of the method: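 Inhibitors of agonist-stimulated UAS-bla reporter activity were sought in HEK293 cells; rosiglitazone (50 nM) defined full signal and DMSO baseline. Curves fitted to Hill model gave IC50 and efficacy.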

[10] = qHTS assay for small molecule agonists of retinoid X receptor alpha signaling (AID 588544); settings: HEK293T RXRa-UAS-bla, beta-lactamase reporter, 18 h; 530 nm emission
[11] = qHTS assay for small molecule antagonists of vitamin D receptor signaling (AID 588541); settings: HEK293T VDR-UAS-bla, beta-lactamase ratio, antagonist mode; measured here: W460 blue channel (cell viability)
[12] = qHTS assay for small molecule antagonists of retinoid X receptor alpha signaling (AID 588546); settings: HEK293T RXRa-UAS-bla, beta-lactamase ratio, antagonist mode; measured here: W530 green channel, cytotoxicity proxy;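 also: cells stimulated with 9-cis-retinoic acid as agonist; % is scaled to controls: 0 for no effect and ±100 for the full control effect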
Summary of the method: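 Beta-lactamase reporter inhibition, read as CCF4 fluorescence ratio (ex 405, em 460/530 nm) after 2 h at RT. HEK293T UAS-bla cells, 2500/well, were stimulated with 9-cis-RA at 500 or 100 nM final alongside test compound for 18 h at 37 C.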

[13] = qHTS Validation Assay for Iinhibitors of HIV-1 Budding by Blocking the Interaction of PTAP/TSG101 (AID 485342); settings: TSG101-PTAP binding, fluorescence polarization, 4-point titration; measured here: FITC channel readout
Summary of the method: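 Fluorescence anisotropy measured PTAP-Tsg101 interaction. Final concentrations were 10 uM protein domain and 50 nM labeled peptide, equilibrated 20 min at room temperature.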

[14] = measured here: cell count channel max response
[15] = measured here: lipid (BODIPY) channel AC50
[16] = measured here: lipid channel max response
[17] = TFE3-RCC UOK109 viability, measured here: UOK109 Z-AUC
[18] = TFE3-RCC viability, measured here: UOK124 Z-AUC
[19] = TFE3-RCC viability, measured here: UOK145 Z-AUC
[20] = TFE3-RCC viability, measured here: UOK145 cell viability
[21] = measured here: cell number channel AC50
[22] = TFE3-RCC viability, measured here: UOK124 cell viability
Tags tell the direction and shape of the fitted curve.

CCOC(=O)c1ncn2c1CN(C)C(=O)c1cc(F)ccc1-2
max response [1, 14]: 45.3%
AC50 [1, 15]: 0.01 µM [falling, full curve, poor fit]
max response [1, 16]: 47.4%
z-score [2, 17]: -0.981
z-score [2, 18]: 0.415
z-score [2, 19]: -0.96
AC50 [2, 20]: 0.187 µM [rising, full curve]

CCCCC/C=C\CC(O)/C=C/c1cccc(CC(O)CCCCO)n1 (stereo not drawn)
max response [1, 14]: 52.7%
AC50 [1, 21]: 39.8 µM [rising, single point]
max response [1, 16]: 52.6%
AC50 [3]: 75.7 µM [falling, single point]

Cc1ccc(C)c(OCCCC(C)(C)C(=O)O)c1
AC50 [4]: 1.26 µM [rising, full curve]
max response [1, 14]: 20.5%
AC50 [1, 15]: 39.8 µM [rising, partial curve, poor fit]
max response [1, 16]: 42%
AC50 [5]: 31.6 µM [falling, partial curve, poor fit]
max response [6]: 73.7%
z-score [2, 17]: 0.607
z-score [2, 18]: 0.452
z-score [2, 19]: 0.4
AC50 [2, 20]: 37.2 µM [falling, single point]

COc1nccc(-c2c(-c3ccc(F)cc3)ncn2C2CCC(O)CC2)n1 (stereo not drawn)
max response [1, 14]: 28.3%
AC50 [1, 15]: 1.41 µM [rising, full curve, poor fit]
max response [1, 16]: 31.2%
z-score [2, 17]: -0.0849
z-score [2, 18]: 0.527
AC50 [2, 22]: 6.62 µM [falling, partial curve, poor fit]
z-score [2, 19]: 0.635
AC50 [2, 20]: 20.9 µM [falling, partial curve, poor fit]

CC(C)C[C@H](NC(=O)[C@H](O)[C@H](N)Cc1ccccc1)C(=O)O
max response [1, 14]: 18%
AC50 [1, 15]: 1.26 µM [falling, full curve, poor fit]
max response [1, 16]: 10.9%
AC50 [3]: 95.3 µM [falling, single point]

NCCCC(N)(C(=O)O)C(F)F (stereo not drawn)
max response [1, 14]: 35.2%
AC50 [1, 21]: 14.1 µM [falling, partial curve, poor fit]
max response [1, 16]: 36.7%
AC50 [3]: 37.9 µM [falling, partial curve, poor fit]
viability change [7]: 4.44%
z-score [2, 17]: 0.344
z-score [2, 18]: 0.855
AC50 [2, 22]: 0.743 µM [falling, partial curve, poor fit]
z-score [2, 19]: 0.555

COc1ccccc1N1CCN(CCN(C(=O)c2ccc(F)cc2)c2ccccn2)CC1
max response [1, 14]: -22.6%
AC50 [1, 21]: 22.4 µM [falling, partial curve, poor fit]
max response [1, 16]: -21.9%
AC50 [3]: 84.9 µM [falling, single point]
viability change [7]: -10.3%

Cc1cc(C)c(NC(=O)C[C@H](CC(=O)O)c2cccc3ccccc23)c(C(=O)N2CCC3(CCCC3)CC2)c1
max response [1, 14]: 72%
AC50 [1, 21]: 39.8 µM [rising, partial curve, poor fit]
max response [1, 16]: 74.7%
AC50 [3]: 95.3 µM [falling, single point]
AC50 ([8]; measured here: 460 nm blue channel): 7.94 µM [falling, partial curve, poor fit]

O=C(C1CCCCC1)N1CC(=O)N2CCc3ccccc3C2C1 (stereo not drawn)
max response [1, 14]: 18.6%
AC50 [1, 15]: 44.7 µM [rising, partial curve, poor fit]
max response [1, 16]: 38.6%
viability change [7]: -0.919%

O=c1ccc2ccccc2o1
max response [1, 14]: 23.5%
AC50 [1, 15]: 35.5 µM [rising, single point]
max response [1, 16]: 39%
AC50 [9]: 50.1 µM [rising, single point]
max response [10]: 10.1%

O=C(c1ccco1)N1CCC2(CCCN(c3cccc(-c4ccccc4)c3)C2)CC1
AC50 [4]: 10 µM [rising, single point]
max response [1, 14]: -4.43%
AC50 [1, 15]: 39.8 µM [falling, single point]
max response [1, 16]: -52%

CC(=O)O[C@H]1C(=O)[C@@]2(C)[C@H]([C@H](OC(=O)c3ccccc3)[C@]3(O)C[C@H](OC(=O)[C@H](O)[C@@H](NC(=O)c4ccccc4)c4ccccc4)C(C)=C1C3(C)C)[C@]1(OC(C)=O)CO[C@@H]1C[C@@H]2O
max response [1, 14]: 0.493%
AC50 [1, 21]: 0.251 µM [rising, full curve, poor fit]
max response [1, 16]: -38.9%
AC50 [5]: 0.316 µM [falling, full curve, poor fit]
max response [6]: 67%
AC50 [11]: 0.1 µM [falling, full curve, poor fit]
max response [12]: -2.59%
AC50 ([8]; measured here: 530 nm viability channel): 0.0398 µM [rising, full curve]

Cc1cccc(CNc2ccnc(-c3cccc(C#N)c3)n2)c1
AC50 [4]: 15.8 µM [rising, single point]
max response [1, 14]: 0.695%
AC50 [1, 15]: 5.62 µM [rising, partial curve, poor fit]
max response [1, 16]: 7.66%

N[C@@H](Cc1ccccc1)C(=O)O
max response [1, 14]: 25.5%
AC50 [1, 15]: 35.5 µM [rising, single point]
max response [1, 16]: 31.1%
AC50 [9]: 0.00141 µM [falling, full curve, poor fit]

CCOc1ccc(NC(C)=O)cc1
max response [1, 14]: 28.7%
AC50 [1, 15]: 39.8 µM [rising, single point]
max response [1, 16]: 50.5%
AC50 [9]: 50.1 µM [rising, single point]

Cc1ccc2c(c1)C(N1CCN(C)CC1)=Nc1cccnc1N2
max response [1, 14]: -8.85%
AC50 [1, 21]: 3.55 µM [falling, full curve, poor fit]
max response [1, 16]: -7.41%
AC50 [13]: 56.2 µM [falling, partial curve]

CCCNC(=O)NS(=O)(=O)c1ccc(Cl)cc1
max response [1, 14]: 18.2% and 26%
AC50 [1, 15]: 39.8 µM [rising, single point]
max response [1, 16]: 32% and 25.5%
max response [6]: 14.1%
